Test results as given in PubChem BioAssay AID1963576 (National Center for Advancing Translational Sciences (NCATS), 2024).
In all, about 46,000 compounds went through this assay and about 60 (0.1%) were called active. Not shown: some 3% with an inconclusive outcome. Calls come from the whole dose curve; as a rule, active = well fitted inhibition curve with a large enough effect; inconclusive = small, poorly fitted or top-dose-only effect; inactive = no such curve, though single readings can be large or run the other way. The list shows a part of the results.

Test: Primary qHTS assay for Inhibitors of ovarian cancer metastasis using an organotypic tumor microenvironment (TME) model. Note: nearly all actives have a fitted effect of over 65% in size.
Conditions: SKOV3ip1-GFP adhesion/invasion on 3D omental model, fluorescence; series mostly up to 45.8 µM; activity change, negative = inhibition: at the top concentration
Description: PI: Ernst Lengyel MD., Ph.D. Department of Obstetrics and Gynecology, Section of Gynecologic Oncology University of Chicago Medicine, Chicago, Illinois. The tumor microenvironment (TME) is a key determinant of metastatic efficiency. We performed a quantitative high-throughput screen (qHTS) of diverse medicinal chemistry tractable scaffolds (44,420 compounds) and pharmacologically active small molecules (386 compounds) using a layered organotypic, robust assay representing the ovarian cancer metastatic TME. This 3D model contains primary human mesothelial cells, fibroblasts, and extracellular matrix, to which fluorescently labeled ovarian cancer cells are added. Initially, 100 compounds inhibiting ovarian cancer adhesion/invasion to the 3D model in a dose-dependent manner were identified. Of those, eight compounds were confirmed active in five high-grade serous ovarian cancer cell lines and were further validated in secondary in vitro and in vivo biological assays. […] Specifically, NCGC00117362 and PP-121 inhibited ovarian cancer adhesion, invasion, and proliferation, whereas milciclib inhibited ovarian cancer invasion and proliferation. […] To evaluate the clinical potential of NCGC00117362, structure - activity relationship studies were performed. […] The three compounds identified have promise as therapeutics for prevention and treatment of ovarian cancer metastasis.
PROTOCOL TABLE (as described by Inglese J, Shamu CE and Guy RK. 2007) SEQUENCE No. (e.g., 1, 2, 3, etc.); […] (e.g., Cells, Incubation, Reagent, etc.); VALUE; DESCRIPTION. 1; Cells; 4 uL; primary human omental fibroblast, black, clear bottom, low base, 1536-well Aurora assay plate. 2; Incubation; 48 hr; 37C. 3; Cells; 3 uL; 1,200 SKOV3ip1-GFP cells. 4; Compounds; 23nL; acoustic dispenser. 5; Incubation; 2 hr; room temperature. 6; Incubation; 16 hr; 37C. 7; Wash; 5 uL; 1x PBS. 8; Fixing; 5 uL; 4% paraformaldehyde (PFA). 9; Incubation; 15 min; room temperature 10; Wash, 5 uL; 1x PBS. 11; Detection; Fluorescence, excitation filter 488 nm, emission filter 509 nm. NOTES (numbers refer to Sequence numbers above) 1. For the 1,536-well format, 40 primary human omental fibroblasts and 400 mesothelial cells were seeded with 0.02 µg fibronectin and 0.02 µg collagen type I in 4 µL of growth media (2.3 mm2; Supplementary Fig. S1A). 2. Assay plates were incubated for 48 hours at 37 C. 3. After incubation, 1,200 SKOV3ip1-GFP were seeded in 3 µL of serum-free media (growth media minus FBS) on top of primary human omental cells. 4. Compounds or controls were added to each well immediately after the addition of the cancer cells. Compounds were screened in four doses (0.36-46 µmol/L), and the plates contained the positive control (Tomatine) in eight doses (0.035-75 µmol/L) and DMSO (equal volume controls) 5 - 6. The plates were incubated at room temperature for 2 hours and then at 37 degrees C for 16 hours. 7 - 10. Following incubation, the media were aspirated and each well washed with PBS (5 µL) and then fixed with 4% paraformaldehyde (PFA; 5 µL). After 15 minutes, the PFA solution was aspirated, PBS (5 µL) was added. 11. The number of GFP-labeled cells analyzed using a fluorescent cytometer TTP LabTech Acumen eX3 using 488 nm excitation filter and 509 nm emission filter. Data was normalized to the DMSO treated for negative and Tomatine treated wells for positive control. REFERENCES: Inglese J, Shamu CE and Guy RK, Reporting data from high throughput screening of small molecule libraries, Nature Chemical Biology, 2007, 3(8): 438-441. doi.org/10.1038/nchembio0807-438. Yasgar A, Shinn P, Jadhav A, Auld DS, Michael S, Zheng W, Austin CP, Inglese J and Simeonov A, Compound Management for Quantitative High-Throughput Screening. J. Assoc. Lab. Auto., 2008, 13: 79-89. doi: 10.1016/j.jala.2007.12.004.

SMILES | outcome | activity change, negative = inhibition
COC(=O)c1ccccc1NC(=O)c1cccn(Cc2cccc(Cl)c2)c1=O | inactive | 
Clc1ccccc1C(c1ccccc1)(c1ccccc1)n1cccn1 |  | inactive: 2.31%
O=C1CC(c2ccc(C(F)(F)F)cc2)c2c(c3ccccc3oc2=O)O1 (centres undefined) |  | inactive: 6.17%
Cc1cccc(Cn2cccc(C(=O)Nc3nnc(C)s3)c2=O)c1 |  | inactive: -0.432%
Cc1cc(SCc2sc(-c3ccc(C(F)(F)F)c(F)c3)nc2C)ccc1OCC(=O)O |  | inactive: 5.73%
O=C(Nc1ccc2c(c1)OCCO2)c1cccn(Cc2ccccc2)c1=O |  | inactive: -12.8%
Nc1c(C(=O)Nc2ccc(F)c(Cl)c2)sc2nc3c(cc12)N1CCC3CC1 |  | inactive: -13%
O=C(Oc1ccc([N+](=O)[O-])cc1)N1CCC(C(O)(c2ccc3c(c2)OCO3)c2ccc3c(c2)OCO3)CC1 |  | inactive: -0.897%
CN1C(=O)COc2c(C(=O)NC3CN4CCC3CC4)cc(Cl)cc21 (centres undefined) |  | inactive: 0.548%
O=C(Nc1ccc(F)c(Cl)c1)N(Cc1ccc2c(c1)OCO2)C1CCN(Cc2ccccc2)CC1 |  | inactive: -16.1%
CCOc1ccc2nc(NC(=O)c3cccn(Cc4ccc(C)cc4)c3=O)sc2c1 |  | inactive: -1.15%
O=C(Nc1ccccc1)N(Cc1ccc2c(c1)OCO2)C1CCN(Cc2ccccc2)CC1 |  | inactive: -7.76%
O=C(Nc1ccon1)c1cccn(Cc2cccc([N+](=O)[O-])c2)c1=O |  | inactive: -2.12%
O=C(Nc1ccc2c(c1)OCO2)c1cccn(Cc2ccccc2)c1=O |  | inactive: 1.59%
O=C1CCC[C@@H]2[C@H]3CCCN4CCC[C@@H](CN12)[C@@H]34 |  | inactive: -3.45%
Cc1ccc(OCC(=O)Nc2ccc(Cl)cc2C(=O)c2ccccc2)c(Br)c1 |  | inactive: 5.57%
COc1ccc(C(=O)c2c(C)n(CCN3CCOCC3)c3cc(I)ccc23)cc1 |  | inactive: 21.4%
O=P1(NCCCl)OCCCN1CCCl (centres undefined) |  | inactive: -14.6%
CCc1ccc(-n2nc(C)c3c2NC(=O)CSC3c2ccccc2C)cc1 (centres undefined) | inactive | 
COc1ccc(NC(=O)CN2C(=O)C(C)N=C(c3ccccc3)c3ccccc32)cc1OC (centres undefined) |  | inactive: 6.99%
Cc1ccc(Cn2cccc(C(=O)Nc3nc4ccc(C)cc4s3)c2=O)cc1 |  | inactive: -1.39%
Cc1ccc(NC(=O)CN2C(=O)CN=C(c3ccccc3)c3ccccc32)cc1Cl | inactive | 
CC(=O)c1cccc(NC(=O)c2cccn(Cc3cccc(C)c3)c2=O)c1 | inactive | 
CCSc1nnc(NC(=O)c2cccn(Cc3ccccc3Cl)c2=O)s1 |  | inactive: 27.4%
O=S(=O)(F)Cc1ccccc1 |  | inactive: -2.68%

SMILES | outcome | activity change, negative = inhibition
CCOc1ccccc1NC(=O)c1cccn(Cc2ccccc2C)c1=O | inactive | 
N#Cc1cc2c(nc1SCC(=O)Nc1cccc(C(F)(F)F)c1)C1CCN2CC1 | inactive | 
COc1ccc(C(c2c(O)c3ccccc3oc2=O)c2c(C)n(C)n(-c3ccccc3)c2=O)cc1 (centres undefined) |  | inactive: 3.07%
Cc1cccc(OCC(=O)N2CCN(Cc3cc(=O)n4nc(-c5ccccc5Cl)sc4n3)CC2)c1 |  | inactive: 11.2%
Cc1ccc(-n2c(/C=C\c3ccc(F)c(F)c3)nc3ccccc3c2=O)c(C)c1 |  | inactive: -0.841%
Cc1ccccc1-c1nn2c(=O)cc(CN3CCN(C(=O)COc4ccccc4Cl)CC3)nc2s1 |  | inactive: -5.85%
O=C(COc1ccc(Br)cc1)Nc1ccc(Cl)cc1C(=O)c1ccccc1 |  | inactive: 7.11%
Cc1cc(C)cc(NC(=O)CN2C(=O)CN=C(c3ccccc3)c3cc(Cl)ccc32)c1 | inactive | 
COc1ccc2c(c1)CN(C)CC2c1ccc(Cl)c(Cl)c1 (centres undefined) |  | inactive: -5.44%
CC(C)C[C@H](CN)CC(=O)O |  | inactive: 0.0992%
C1=C2CCCN[C@H]2[C@@H]2C[C@H]1[C@@H]1CCCCN1C2 |  | inactive: -22.8%
Cc1ccc(OCC(=O)N2CCN(Cc3ccc(F)cc3)CC2)cc1 |  | inactive: -2.29%
Cc1ccc(C(C)(C)C)c(OCC(=O)Nc2ccc(Cl)cc2C(=O)c2ccccc2)c1 |  | inactive: 9.71%
COc1ccc2c(c1)[C@]13CCCCC1C(C2)N(C)CC3 (some centres undefined) |  | inactive: -6.03%
COc1cccc(-n2c(/C=C\c3ccc(Cl)cc3)nc3ccccc3c2=O)c1 | inactive | 
c1cnc2c(c1)ncn2C1CCNCC1 |  | inactive: 0.329%
CCC12CN3CC(CC)(CN(C1)C3c1c(C)[nH]c(=O)[nH]c1=O)C2=O (centres undefined) |  | inactive: 1.06%
COc1cc(OC)cc(C(=O)Nc2ccc(Cl)cc2C(=O)c2ccccc2Cl)c1 |  | inactive: 3.13%
O=c1c2ccccc2nc(/C=C/c2cccc3ccccc23)n1-c1ccc(Cl)cc1 |  | inactive: 48.8%
CC(=O)OCC1=C(C(=O)O)N2C(=O)[C@@H](N)[C@@H]2SC1 |  | inactive: 0.22%
Cc1ccc2nc(NC(=O)c3cccn(Cc4ccccc4F)c3=O)sc2c1 | inactive | 
Cc1ccc2c(=O)n(-c3cccc(Cl)c3)c(=O)[nH]c2c1 |  | inactive: -8.5%
O=C(Nc1ccc(Br)cc1C(=O)c1ccccc1Cl)c1ccc(Br)cc1 |  | inactive: -3.12%
Cc1ccccc1-c1nc(CN2C(=O)CN=C(c3ccccc3)c3ccccc32)c(C)o1 |  | inactive: 1.3%
